# Measured values published in ChEMBL document CHEMBL4888484, “Replenishing the malaria drug discovery pipeline: Screening and hit evaluation of the MMV Hit Generation Library 1 (HGL1) against asexual blood stage Plasmodium falciparum ,using a nano luciferase reporter read-out” (2022).
# Hit rate of the full screen: of about 150,000 compounds, about 540 (0.36%) showed an effect of 50% or more. The list shows a part of the results.
# Test system: Plasmodium falciparum
# Test: Primary screen in NF54 nanoGlo assay, in single point, at 2uM, 72h; a lower Z score goes with more inhibition
# Assay type: functional, Erythrocyte
# Conditions: timepoint 72 hour
Compound,% Inhibition,Z score
O=C1[C@@H]2CCCCN2C(=O)N1CC1(c2ccccc2F)CC1,-23%,3.48
COc1cc(CNC(=O)C2C3CCCCC32)ccc1C(=O)O (stereo unspecified),-16%,1.51
N=C1Cc2ncnn2C(n2nc(-c3ccc(F)cc3)cc2C(F)(F)F)=NN1,-9%,1.34
O=C(CNC1CC1)NCc1cc(F)cc(C(F)(F)F)c1,-19%,1.72
Cc1nc[nH]c1CNc1cc(C(=O)N2CCc3ccccc3C2)cc(S(=O)(=O)N(C)C)c1,-17%,1.95
C=CCN(CC=C)C(=O)NCc1nc(C)c(C)s1,-9%,1.37
CC(C)c1nc(CC(=O)NCCc2ncn(C)n2)cs1,-11%,1.82
CCc1ccc(C2CN3C(=O)N(c4cccc5ccccc45)C(=O)[C@]3(C)c3[nH]c4ccccc4c32)cc1 (stereo partly specified),-13%,1.66
CCC(C)Oc1ccc(NC(=O)NCC2CCCOC2)cc1 (stereo unspecified),1%,-0.24
Cc1nccc(NC(=O)c2nn(C(C)C)cc2Br)n1,-5%,1.04
c1cnc(-c2ccnc(N[C@H]3CCCC34CCOCC4)n2)cn1,9%,-1.12
Cc1occc1C(=O)NC1CCN(C(=O)c2cc(F)cc3cccnc23)CC1,-12%,1.73
CCC1(CC)C(NC(=O)CCN2CCN(C(C)C)CC2)CC1OC (stereo unspecified),9%,-1.7
O=C(Nc1nc2ccccn2n1)C12CCC(C(F)(F)F)(CC1)CC2,0%,0.08
CN1C(=O)C(C)(C)c2cc(S(=O)(=O)N(C)CC(=O)NC3CCCCCC3)ccc21,-15%,2.97
CN1N=C(C(=O)Nc2ccccc2CN2CCCCC2)CCC1=O,-13%,2.06
Cc1nn(C)c(C)c1CNC(=O)Nc1ccc2nscc2c1,-1%,0.11
COc1cccc(C(=O)N2CCC[C@H](c3nc(-c4ccncc4)ncc3-c3ccccc3C)C2)c1OC,13%,-1.69
COC(=O)N1CCCC(NC2CCc3c(OC)cccc32)C1 (stereo unspecified),-10%,1.28
COC[C@@H]1CCCN1C(=O)NCc1ccc(S(N)(=O)=O)cc1,-18%,2.93
CCOc1ccc(OCC)c(NS(=O)(=O)c2cc(-c3c(C)noc3NC(C)=O)ccc2OC)c1,14%,-2.02
COCC[C@](C)(O)CNC(=O)c1ccccc1Cl,-6%,1.11
CCCOc1ccccc1CCNC(=O)N1CCC2(CCC(=O)N2)CC1,2%,-0.3
